First the molecules themselves.
T1: RBFOX1 RRM (Homo sapiens, UniProt Q9NWB1 109-208)
T1 sequence: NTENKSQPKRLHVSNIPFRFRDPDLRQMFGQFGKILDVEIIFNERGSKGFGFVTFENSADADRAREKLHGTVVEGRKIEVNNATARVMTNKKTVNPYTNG

B1: UGGUUGC (DNA:RNA)
RNA: GGGAGACCGGAAUUCAGAUUGUCCUGGUUGCUUAAAUCCCGUCGUAGCCACCA
DNA 1: CAATCTGAATTCCGGTCTCCC
DNA 2: TGGTGGCTACGACGGGATT
B2: ACAACGA (DNA:RNA)
RNA: B1 RNA with U25A, G26C, G27A, U28A, U29C, C31A
DNA 1: CAATCTGAATTCCGGTCTCCC
DNA 2: TGGTGGCTACGACGGGATT
B3: UAUGCAU (DNA:RNA)
RNA: B1 RNA with G26A, G27U, U28G, U29C, G30A, C31U
DNA 1: CAATCTGAATTCCGGTCTCCC
DNA 2: TGGTGGCTACGACGGGATT
B4: GAGGAUG (DNA:RNA)
RNA: B1 RNA with U25G, G26A, U28G, U29A, G30U, C31G
DNA 1: CAATCTGAATTCCGGTCTCCC
DNA 2: TGGTGGCTACGACGGGATT
B5: GAUACCG (DNA:RNA)
RNA: GGGAGACCGGAAUUCAGAUUGUCCGAUACCGUUAAAUCCCGUCGUAGCCACCA
DNA 1: CAATCTGAATTCCGGTCTCCC
DNA 2: TGGTGGCTACGACGGGATT
B6: AGGGAGC (DNA:RNA)
RNA: B1 RNA with U25A, U28G, U29A
DNA 1: CAATCTGAATTCCGGTCTCCC
DNA 2: TGGTGGCTACGACGGGATT
B7: UUUUGCA (DNA:RNA)
RNA: B5 RNA with G25U, A26U, A28U, C29G, G31A
DNA 1: CAATCTGAATTCCGGTCTCCC
DNA 2: TGGTGGCTACGACGGGATT
B8: GCUAUCU (DNA:RNA)
RNA: B5 RNA with A26C, C29U, G31U
DNA 1: CAATCTGAATTCCGGTCTCCC
DNA 2: TGGTGGCTACGACGGGATT
B9: CGAUGGC (DNA:RNA)
RNA: B1 RNA with U25C, G27A, U29G
DNA 1: CAATCTGAATTCCGGTCTCCC
DNA 2: TGGTGGCTACGACGGGATT
B10: UGGCAUA (DNA:RNA)
RNA: B1 RNA with U28C, U29A, G30U, C31A
DNA 1: CAATCTGAATTCCGGTCTCCC
DNA 2: TGGTGGCTACGACGGGATT
B11: UCGUGUU (DNA:RNA)
RNA: B1 RNA with G26C, U29G, G30U, C31U
DNA 1: CAATCTGAATTCCGGTCTCCC
DNA 2: TGGTGGCTACGACGGGATT
B12: AUACGAA (DNA:RNA)
RNA: GGGAGACCGGAAUUCAGAUUGUCCAUACGAAUUAAAUCCCGUCGUAGCCACCA
DNA 1: CAATCTGAATTCCGGTCTCCC
DNA 2: TGGTGGCTACGACGGGATT
B13: UAACUGG (DNA:RNA)
RNA: B1 RNA with G26A, G27A, U28C, C31G
DNA 1: CAATCTGAATTCCGGTCTCCC
DNA 2: TGGTGGCTACGACGGGATT
B14: GCCUGCA (DNA:RNA)
RNA: B12 RNA with A25G, U26C, A27C, C28U, A30C
DNA 1: CAATCTGAATTCCGGTCTCCC
DNA 2: TGGTGGCTACGACGGGATT
B15: CAUUUGU (DNA:RNA)
RNA: B1 RNA with U25C, G26A, G27U, C31U
DNA 1: CAATCTGAATTCCGGTCTCCC
DNA 2: TGGTGGCTACGACGGGATT
B16: AUUCGCG (DNA:RNA)
RNA: B12 RNA with A27U, A30C, A31G
DNA 1: CAATCTGAATTCCGGTCTCCC
DNA 2: TGGTGGCTACGACGGGATT
B17: GCAAACG (DNA:RNA)
RNA: B5 RNA with A26C, U27A, C29A
DNA 1: CAATCTGAATTCCGGTCTCCC
DNA 2: TGGTGGCTACGACGGGATT
B18: AAGACCG (DNA:RNA)
RNA: B5 RNA with G25A, U27G
DNA 1: CAATCTGAATTCCGGTCTCCC
DNA 2: TGGTGGCTACGACGGGATT
B19: AAAAACC (DNA:RNA)
RNA: B5 RNA with G25A, U27A, C29A, G31C
DNA 1: CAATCTGAATTCCGGTCTCCC
DNA 2: TGGTGGCTACGACGGGATT
B20: UAUACCG (DNA:RNA)
RNA: B5 RNA with G25U
DNA 1: CAATCTGAATTCCGGTCTCCC
DNA 2: TGGTGGCTACGACGGGATT
B21: GGGGAGG (DNA:RNA)
RNA: B1 RNA with U25G, U28G, U29A, C31G
DNA 1: CAATCTGAATTCCGGTCTCCC
DNA 2: TGGTGGCTACGACGGGATT
B22: UUACACG (DNA:RNA)
RNA: B12 RNA with A25U, G29A, A30C, A31G
DNA 1: CAATCTGAATTCCGGTCTCCC
DNA 2: TGGTGGCTACGACGGGATT
B23: UUGCGUG (DNA:RNA)
RNA: B12 RNA with A25U, A27G, A30U, A31G
DNA 1: CAATCTGAATTCCGGTCTCCC
DNA 2: TGGTGGCTACGACGGGATT
B24: UGCGAGA (DNA:RNA)
RNA: B1 RNA with G27C, U28G, U29A, C31A
DNA 1: CAATCTGAATTCCGGTCTCCC
DNA 2: TGGTGGCTACGACGGGATT
B25: CCACUAU (DNA:RNA)
RNA: B12 RNA with A25C, U26C, G29U, A31U
DNA 1: CAATCTGAATTCCGGTCTCCC
DNA 2: TGGTGGCTACGACGGGATT
B26: UGAAUGA (DNA:RNA)
RNA: B1 RNA with G27A, U28A, C31A
DNA 1: CAATCTGAATTCCGGTCTCCC
DNA 2: TGGTGGCTACGACGGGATT
B27: GAUACUU (DNA:RNA)
RNA: B5 RNA with C30U, G31U
DNA 1: CAATCTGAATTCCGGTCTCCC
DNA 2: TGGTGGCTACGACGGGATT
B28: UGGGAUC (DNA:RNA)
RNA: B1 RNA with U28G, U29A, G30U
DNA 1: CAATCTGAATTCCGGTCTCCC
DNA 2: TGGTGGCTACGACGGGATT
B29: UGUAUUC (DNA:RNA)
RNA: B1 RNA with G27U, U28A, G30U
DNA 1: CAATCTGAATTCCGGTCTCCC
DNA 2: TGGTGGCTACGACGGGATT
B30: AUUAGGA (DNA:RNA)
RNA: B12 RNA with A27U, C28A, A30G
DNA 1: CAATCTGAATTCCGGTCTCCC
DNA 2: TGGTGGCTACGACGGGATT
B31: AAUAGGU (DNA:RNA)
RNA: B5 RNA with G25A, C29G, C30G, G31U
DNA 1: CAATCTGAATTCCGGTCTCCC
DNA 2: TGGTGGCTACGACGGGATT

Residue numbers refer to the chain shown, from its start. Some of the results follow.

The target of the assay is T1, RBFOX1 RRM. Briefly: EMSA; HiTS-Eq, 1 nM pool, 10 min; buffer printed only for the single-RNA assays: 10 mM Tris pH 7.5, 150 mM NaCl, 3.4 mM EDTA, 0.001% NP-40, 30 C. As to conditions: tags: His6 N-terminal (pET28a); label: 5' 32P. The gist of the method: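 Purified wild-type or mutant RbFox RRM at increasing concentrations was equilibrated with 1 nM of 5′-radiolabelled RNA carrying 7 randomized nucleotides for 10 min in 50 µL. Unbound RNA was separated by 8% native PAGE and sequenced. Relative association constants came from read-count changes of each RNA species compared with the control reaction, normalised to the cognate motif.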
Background: In EMSA bound probe runs differently from free probe, usually more slowly.
Regarding B1, the binding signal was 0.0455 KA relative to UGCAUGU.
The figure for B2 is 0.00357 KA relative to UGCAUGU; for B3 it is 0.0145 KA relative to UGCAUGU; for B4 it is 0.0147 KA relative to UGCAUGU.
The result for B5 reads 0.00627 KA relative to UGCAUGU.
As to B6, the binding signal was 0.0228 KA relative to UGCAUGU.
Consider B7, for which the binding signal was 0.0266 KA relative to UGCAUGU.
The result for B8 reads 0.0105 KA relative to UGCAUGU; that for B9, 0.0149 KA relative to UGCAUGU; that for B10, 0.0137 KA relative to UGCAUGU.
B11: the binding signal was 0.0182 KA relative to UGCAUGU.
Turning to B12, the binding signal was 0.00544 KA relative to UGCAUGU.
The figure for B13 is 0.0109 KA relative to UGCAUGU; for B14 it is 0.0378 KA relative to UGCAUGU.
The figure for B15 is 0.0108 KA relative to UGCAUGU; for B16 it is 0.0127 KA relative to UGCAUGU; for B17 it is 0.00487 KA relative to UGCAUGU.
The figure for B18 is 0.00753 KA relative to UGCAUGU; for B19 it is 0.000205 KA relative to UGCAUGU.
For the molecule B20, the binding signal was 0.00193 KA relative to UGCAUGU.
Regarding B21, the binding signal was 0.025 KA relative to UGCAUGU.
Take B22: the binding signal is 0.00981 KA relative to UGCAUGU.
As for B23, the binding signal was 0.0447 KA relative to UGCAUGU.
The figure for B24 is 0.0189 KA relative to UGCAUGU; for B25 it is 0.00428 KA relative to UGCAUGU.
On to B26, for which the binding signal is 0.0319 KA relative to UGCAUGU.
The result for B27 reads 0.00562 KA relative to UGCAUGU; that for B28, 0.0286 KA relative to UGCAUGU.
The result for B29 reads 0.0153 KA relative to UGCAUGU; that for B30, 0.0014 KA relative to UGCAUGU.
As to B31, the binding signal was 0.00549 KA relative to UGCAUGU.

The values above are taken from publication PMC9911399, “Two distinct binding modes provide the RNA-binding protein RbFox with extraordinary sequence specificity”.
